Laboratory results taken from patent US6437143B1, “Thiazolidone-2 derivatives, 4-diketone substituted, method for obtaining them and pharmaceutical compositions containing same” (Merck Patent Gesellschaft mit beschrankter Haftung, priority 1996, dated 2002).

melting point (anhydrous form): 81 to 83 °C
melting point (hemihydrate): 105 to 107 °C
SMILES: O=C1NC(=O)C(CCOc2ccccc2)S1 (centres unmarked) (hydrate or solvate) [Compound 1, 5-(2-phenoxyethyl)-2,4-thiazolidinedione]

Read-outs that look alike come from different tables or passages of the source. Entries with a single value are a further part of the results.
